Results: patent US7425576B2, “Compounds as inhibitors of hepatitis C virus NS3 serine protease” (Schering Corporation, priority 2004, dated 2008)

Biological target: Recombinant heterodimeric HCV NS3/NS4A protease (strain 1a) (Hepatitis C virus genotype 1a, UniProt P27958)
Test: Spectrophotometric assay for HCV protease inhibitory activity (chromogenic ester substrates)
Format: biochemical
Excerpt: The present invention relates to novel HCV protease inhibitors. This utility can be manifested in their ability to inhibit the HCV NS2/NS4a serine protease.
Assay for HCV Protease Inhibitory Activity:
Spectrophotometric Assay: Spectrophotometric assay for the HCV serine protease can be performed on the inventive compounds by following the procedure described by R. Zhang et al, Analytical Biochemistry, 270 (1999) 268-275, the disclosure of which is incorporated herein by reference. The assay based on the proteolysis of chromogenic ester substrates is suitable for the continuous monitoring of HCV NS3 protease activity. The substrates are derived from the P side of the NS5A-NS5B junction sequence (Ac-DTEDVVX(Nva), where X=A or P) whose C-terminal carboxyl groups are esterified with one of four different chromophoric alcohols (3- or 4-nitrophenol, 7-hydroxy-4-methyl-coumarin, or 4-phenylazophenol). Illustrated below are the synthesis, characterization and application of these novel spectrophotometric ester substrates to high throughput screening and detailed kinetic evaluation of HCV NS3 protease inhibitors.
Protein concentrations are determined by the Biorad dye method using recombinant HCV protease standards previously quantified by amino acid analysis. Prior to assay initiation, the enzyme storage buffer (50 mM sodium phosphate pH 8.0, 300 mM NaCl, 10% glycerol, 0.05% lauryl maltoside and 10 mM DTT) is exchanged for the assay buffer (25 mM MOPS pH 6.5, 300 mM NaCl, 10% glycerol, 0.05% lauryl maltoside, 5 μM EDTA and 5 μM DTT) utilizing a Biorad Bio-Spin P-6 prepacked column.
Protease Assay: HCV protease assays are performed at 30° C. using a 200 μl reaction mix in a 96-well microtiter plate. Assay buffer conditions (25 mM MOPS pH 6.5, 300 mM NaCl, 10% glycerol, 0.05% lauryl maltoside, 5 μM EDTA and 5 μM DTT) are optimized for the NS3/NS4A heterodimer (D. L. Sali et al, ibid.)). Typically, 150 μl mixtures of buffer, substrate and inhibitor are placed in wells (final concentration of DMSO≦4% v/v) and allowed to preincubate at 30° C. for approximately 3 minutes. Fifty μls of prewarmed protease (12 nM, 30° C.) in assay buffer, is then used to initiate the reaction (final volume 200 μl).The plates are monitored over the length of the assay (60 minutes) for change in absorbance at the appropriate wavelength (340 nm for 3-Np and HMC, 370 nm for PAP, and 400 nm for 4-Np) using a Spectromax Plus microtiter plate reader equipped with a monochrometer (acceptable results can be obtained with plate readers that utilize cutoff filters). Proteolytic cleavage of the ester linkage between the Nva and the chromophore is monitored at the appropriate wavelength against a no enzyme blank as a control for non-enzymatic hydrolysis. The evaluation of substrate kinetic parameters is performed over a 30-fold substrate concentration range (˜6-200 μM). Initial velocities are determined using linear regression and kinetic constants are obtained by fitting the data to the Michaelis-Menten equation using non-linear regression analysis (Mac Curve Fit 1.1, K. Raner). Turnover numbers (kcat) are calculated assuming the enzyme is fully active.
Evaluation of Inhibitors and Inactivators: The inhibition constants (Ki) for the competitive inhibitors Ac-D-(D-Gla)-L-I-(Cha)-C—OH (27), Ac-DTEDVVA(Nva)-OH and Ac-DTEDVVP(Nva)-OH are determined experimentally at fixed concentrations of enzyme and substrate by plotting vo/vi vs. inhibitor concentration ([I]o) according to the rearranged Michaelis-Menten equation for competitive inhibition kinetics: vo/vi=1+[I]o/(Ki(1+[S]o/Km)), where vo is the uninhibited initial velocity, vi is the initial velocity in the presence of inhibitor at any given inhibitor concentration ([I]o) and [S]o is the substrate concentration used.

| Structure (SMILES) | Ki (Table 1, Ki* range class) | Ki (Table 3, Ki* range class) | other results |
| --- | --- | --- | --- |
| C=CCNC(=O)C(=O)C(CC1CC1)NC(=O)[C@@H]1[C@@H]2[C@H](CN1C(=O)[C@@H](NC(=O)N[C@H](COC(=O)NC(C)C)C(C)(C)C)C1CCCC1)C2(C)C (stereo partly shown) [Example 1050] | 75 to 250 nM | – | – |
| C=CCNC(=O)C(=O)C(CCC)NC(=O)[C@@H]1[C@@H]2[C@H](CN1C(=O)[C@@H](NC(=O)N[C@H](COC(=O)NC(C)C)C(C)(C)C)C1CCCC1)C2(C)C (stereo partly shown) [Example 1048] | < 75 nM | – | – |
| C=CCNC(=O)C(=O)C(CCC)NC(=O)[C@@H]1[C@@H]2[C@H](CN1C(=O)[C@@H](NC(=O)NC(COC(=O)NCC)C(C)(C)C)C1Cc3ccccc3C1)C2(C)C (stereo in doubt) [Example 1023] | < 75 nM | – | Ki (Table 6, numeric Ki*): 33 nM |
| CC(C)[C@@H](COC(=O)NCC1CC1)NC(=O)N[C@H](C(=O)N1C[C@H]2[C@@H]([C@H]1C(=O)NC(CC1CC1)C(=O)C(N)=O)C2(C)C)C(C)(C)C (stereo partly shown) [Example 1019] | < 75 nM | – | – |
| C=CCNC(=O)C(=O)C(CC1CC1)NC(=O)[C@@H]1[C@@H]2[C@H](CN1C(=O)[C@@H](NC(=O)NC(COC(=O)NCC)C(C)(C)C)C1Cc3ccccc3C1)C2(C)C (stereo partly shown) [Example 1022] | < 75 nM | – | – |
| CC(C)[C@@H](COC(C)(C)C)NC(=O)N[C@H](C(=O)N1C[C@H]2[C@@H]([C@H]1C(=O)NC(CC1CC1)C(=O)C(N)=O)C2(C)C)C(C)(C)C (stereo partly shown) [Example 1627] | – | < 75 nM | – |
| C=CCNC(=O)C(=O)C(CCC)NC(=O)[C@@H]1[C@@H]2[C@H](CN1C(=O)[C@@H](NC(=O)N[C@H](COC(=O)NC(C)C)C(C)(C)C)C1(C)CCCCC1)C2(C)C (stereo partly shown) [Example 1097] | < 75 nM | – | – |
| CC(C)NC(=O)OC[C@@H](NC(=O)N[C@H](C(=O)N1C[C@H]2[C@@H]([C@H]1C(=O)NC(CC1CCC1)C(=O)C(N)=O)C2(C)C)C1Cc2ccccc2C1)C(C)(C)C (stereo partly shown) [Example 1014] | < 75 nM | – | – |
| CC(C)(C)[C@H](NC(=O)NC1(CO)CCCCC1)C(=O)N1C[C@H]2[C@@H]([C@H]1C(=O)NC(CC1CCC1)C(=O)C(N)=O)C21CC1 (stereo partly shown) [Example 1617] | – | 75 to 250 nM | – |
| COC[C@@](C)(CC(C)C)NC(=O)N[C@H](C(=O)N1C[C@H]2[C@@H]([C@H]1C(=O)NC(CC1CC1)C(=O)C(N)=O)C2(C)C)C1(C)CCCCC1 (stereo partly shown) [Example 1687] | – | < 75 nM | – |
| C=CCNC(=O)C(=O)C(CC1CC1)NC(=O)[C@@H]1[C@@H]2[C@H](CN1C(=O)[C@@H](NC(=O)N[C@H](COC(=O)NC(C)C)C(C)(C)C)C1CCCC1)C2(C)C (stereo partly shown) [Example 1077] | < 75 nM | – | – |
| C=CCNC(=O)C(=O)C(CCCC)NC(=O)[C@@H]1[C@@H]2[C@H](CN1C(=O)[C@@H](NC(=O)N[C@H](COC(=O)NCC)C1CCCCC1)C1CCCCC1)C2(C)C (stereo partly shown) [Example 1099] | < 75 nM | – | – |
| C=CCNC(=O)C(=O)C(CCC)NC(=O)[C@@H]1[C@@H]2[C@H](CN1C(=O)[C@@H](NC(=O)N[C@H](COC(=O)NCC1CC1)C(C)(C)C)C(C)(C)C)C2(C)C (stereo in doubt) [Example 1029] | < 75 nM | – | Ki (Table 6, numeric Ki*): 14 nM |
| CCCCC(NC(=O)[C@@H]1[C@@H]2[C@H](CN1C(=O)[C@@H](NC(=O)N[C@H](COC(=O)NC(C)C)C(C)(C)C)C1Cc3ccccc3C1)C2(C)C)C(=O)C(=O)NC (stereo partly shown) [Example 1072] | < 75 nM | – | – |
| C=CCNC(=O)C(=O)C(CC1CC1)NC(=O)[C@@H]1[C@@H]2[C@H](CN1C(=O)[C@@H](NC(=O)N[C@H](COC)C(C)(C)C)C1Cc3ccccc3C1)C2(C)C (stereo partly shown) [Example 1664] | – | 75 to 250 nM | – |
| CC1(C)[C@@H]2[C@@H](C(=O)NC(CC3CC3)C(=O)C(N)=O)N(C(=O)[C@@H](NC(=O)NC3(CO)CCCCCC3)C3CCCCC3)C[C@@H]21 (stereo partly shown) [Example 1624] | – | < 75 nM | – |
| C#CCCC(NC(=O)[C@@H]1[C@@H]2[C@H](CN1C(=O)[C@@H](NC(=O)N[C@@](C)(COC)CC(C)C)C1(C)CCCCC1)C2(C)C)C(=O)C(=O)NCC=C (stereo partly shown) [Example 1685] | – | 75 to 250 nM | – |
| CC(C)(COCc1ccccc1)NC(=O)N[C@H](C(=O)N1C[C@H]2[C@@H]([C@H]1C(=O)NC(CC1CC1)C(=O)C(N)=O)C2(C)C)C(C)(C)C (mixture of isomers) [Example 1629] | – | 75 to 250 nM | – |

| Structure (SMILES) | Ki (Table 1, Ki* range class) | Ki (Table 3, Ki* range class) | other results |
| --- | --- | --- | --- |
| C=CCNC(=O)C(=O)C(CCC(F)(F)F)NC(=O)[C@@H]1[C@@H]2[C@H](CN1C(=O)[C@@H](NC(=O)N[C@H](COC(=O)NCC)C(C)(C)C)C1Cc3ccccc3C1)C2(C)C (stereo partly shown) [Example 1026] | < 75 nM | – | – |
| C=CCNC(=O)C(=O)C(CCC)NC(=O)[C@@H]1[C@@H]2[C@H](CN1C(=O)[C@@H](NC(=O)N[C@H](COC(=O)OC)C(C)(C)C)C(C)(C)C)C2(C)C (stereo partly shown) [Example 1410] | – | – | Ki (Table 2, Ki* range class): < 75 nM |
| C=CCNC(=O)C(=O)C(CC1CC1)NC(=O)[C@@H]1[C@@H]2[C@H](CN1C(=O)[C@@H](NC(=O)N[C@H](COC(=O)N(C)C)C(C)(C)C)C1Cc3ccccc3C1)C2(C)C (stereo partly shown) [Example 1038] | 75 to 250 nM | – | – |
| CC(C)(C)[C@H](NC(=O)NC1(C(O)c2ccccc2)CCCCC1)C(=O)N1C[C@H]2[C@@H]([C@H]1C(=O)NC(CC1CC1)C(=O)C(N)=O)C2(C)C (stereo partly shown) [Example 1642] | – | < 75 nM | – |
| C=CCNC(=O)C(=O)C(CCC)NC(=O)[C@@H]1[C@@H]2[C@H](CN1C(=O)[C@@H](NC(=O)N[C@H](COC(=O)NC(C)C)C(C)(C)C)C1CCCCC1)C2(C)C (stereo partly shown) [Example 1056] | < 75 nM | – | Ki (Table 6, numeric Ki*): 30 nM |
| CC(C)NC(=O)OC[C@@H](NC(=O)N[C@H](C(=O)N1C[C@H]2[C@@H]([C@H]1C(=O)NC(CC1CCC1)C(=O)C(N)=O)C2(C)C)C1Cc2ccccc2C1)C(C)C (stereo partly shown) [Example 1007] | < 75 nM | – | – |
| C=CCNC(=O)C(=O)C(CCCC)NC(=O)[C@@H]1[C@@H]2[C@H](CN1C(=O)[C@@H](NC(=O)N[C@H](COC(=O)NCC1CC1)C(C)(C)C)C1(C)CCCCC1)C2(C)C (stereo partly shown) [Example 1116] | – | – | Ki (Table 1A, Ki* range class): < 75 nM; Ki (Table 6A, numeric Ki*): 34 nM |
| CC(C)NC(=O)OC[C@@H](NC(=O)N[C@H](C(=O)N1C[C@H]2[C@@H]([C@H]1C(=O)NC(CC1CCC1)C(=O)C(N)=O)C2(C)C)C1CCCC1)C(C)(C)C (stereo partly shown) [Example 1055] | < 75 nM | – | – |
| C=CCNC(=O)C(=O)C(CCC)NC(=O)[C@@H]1[C@@H]2[C@H](CN1C(=O)[C@@H](NC(=O)N[C@H](COC(=O)NCC1CC1)C(C)(C)C)C1(C)CCCCC1)C2(C)C (stereo partly shown) [Example 1114] | – | – | Ki (Table 1A, Ki* range class): < 75 nM; Ki (Table 6A, numeric Ki*): 32 nM |
| CC(=O)OC(c1ccccc1)[C@@H](NC(=O)N[C@H](C(=O)N1C[C@H]2[C@@H]([C@H]1C(=O)NC(CC1CC1)C(=O)C(N)=O)C2(C)C)C(C)(C)C)C(C)C (stereo partly shown) [Example 1653] | – | 75 to 250 nM | – |
| CCNC(=O)OC[C@@H](NC(=O)N[C@H](C(=O)N1C[C@H]2[C@@H]([C@H]1C(=O)NC(CC1CCC1)C(=O)C(N)=O)C2(C)C)C1CCCCC1)C(C)(C)C (stereo partly shown) [Example 1081] | < 75 nM | – | – |
| CC(C)(C)C(=O)OC[C@@H](NC(=O)N[C@H](C(=O)N1C[C@H]2[C@@H]([C@H]1C(=O)NC(CC1CCC1)C(=O)C(N)=O)C2(C)C)C(C)(C)C)C(C)(C)C (stereo partly shown) [Example 1612] | – | < 75 nM | – |
| C=CCNC(=O)C(=O)C(CC1CC1)NC(=O)[C@@H]1[C@@H]2[C@H](CN1C(=O)[C@@H](NC(=O)N[C@H](COC(=O)NC(C)C)C(C)(C)C)C1Cc3ccccc3C1)C2(C)C (stereo partly shown) [Example 1011] | < 75 nM | – | – |
| COC(=O)OC[C@@H](NC(=O)N[C@H](C(=O)N1C[C@H]2[C@@H]([C@H]1C(=O)NC(CC1CC1)C(=O)C(N)=O)C2(C)C)C(C)(C)C)C(C)(C)C (stereo partly shown) [Example 1408] | – | – | Ki (Table 2, Ki* range class): < 75 nM |
| CC(C)(C)[C@H](NC(=O)NC1(C(O)c2ccccc2)CCCC1)C(=O)N1C[C@H]2[C@@H]([C@H]1C(=O)NC(CC1CC1)C(=O)C(N)=O)C2(C)C (stereo partly shown) [Example 1635] | – | < 75 nM | – |
| C=CCNC(=O)C(=O)C(CCC(F)(F)F)NC(=O)[C@@H]1[C@@H]2[C@H](CN1C(=O)[C@@H](NC(=O)N[C@H](COC(=O)NC(C)C)C(C)(C)C)C1Cc3ccccc3C1)C2(C)C (stereo partly shown) [Example 1015] | < 75 nM | – | – |
| CCCCC(NC(=O)[C@@H]1[C@@H]2[C@H](CN1C(=O)[C@@H](NC(=O)NC1(COC(C)(C)C)CCCCC1)C1(C)CCCCC1)C2(C)C)C(=O)C(N)=O (stereo partly shown) [Example 1684] | – | 75 to 250 nM | – |
